Assay results: PubChem BioAssay AID1347120 (National Center for Advancing Translational Sciences (NCATS), 2019)
The campaign covered roughly 390,000 compounds. About 930 (0.24%) were called active. The shares of active, inactive and inconclusive entries below differ from those in the screen. Calls come from the whole dose curve; as a rule, active = well fitted activation curve with a large enough effect; inconclusive = small, poorly fitted or top-dose-only effect; inactive = no such curve, though single readings can be large or run the other way. Potencies of inconclusive entries are doubtful fits and often do not repeat.

Assay: qHTS for Suppressors of FUS Proteinopathy: Primary screen using FUS-linked yeast assay; note: nearly all actives have a fitted effect of over 55% in size;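 for growth rescue (activation): plate controls were DMSO vehicle for no effect and reference control for full effect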
Conditions: S. cerevisiae FUS-expressing, OD600, 24 h; Potency: growth rescue; growth rescue (activation): at 76.6 µM (top of the series)
In short: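 Yeast expressing FUS under galactose induction, OD 0.005 in 2% galactose medium; compounds in a dilution series, 24 h at 30C. Growth rescue by absorbance at 600 nm; CP55940 positive control, DMSO negative.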
Potency is the fitted concentration of half-maximal effect; tags give direction and shape of the fitted curve.

Compound | Potency | growth rescue (activation)
CN(CC(=O)Nc1ccc(Cl)c(Cl)c1)C(=O)c1cccc2cccnc12 | inconclusive: 44.7 µM [activator, single point] | –
Cc1cccc(NC(=O)c2cn(-c3ccccc3)nc2-c2ccccc2)c1C | inconclusive: 28.2 µM [activator, single point] | –
O=C(Cc1cccs1)Nc1ccc(S(=O)(=O)Nc2ncccn2)cc1 | active: 10 µM | –
CC1CCc2c(sc(NC(=O)CCc3nc4ccccc4c(=O)[nH]3)c2C#N)C1 (stereo not drawn) | – | inactive: -0.737%
O=C(O)c1cccc(NC(=O)c2cc(-c3cccc(Cl)c3)nc3ccccc23)c1 | inconclusive: 35.5 µM [activator, single point] | –
O=S(=O)(Nc1ccc2c(c1)nc1n2CCN(Cc2ccccc2)C1)c1ccccc1 | inconclusive: 25.1 µM [activator, partial curve, poor fit] | –
COC(=O)[C@H](CC(C)C)NS(=O)(=O)N(Cc1ccccc1)[C@@H](CC(C)C)C(=O)OC | inconclusive: 35.5 µM [activator, single point] | –
COc1cccc(NS(=O)(=O)c2ccc3[nH]cc(C(=O)NC(C)c4ccccc4)c(=O)c3c2)c1 (stereo not drawn) | inconclusive: 28.2 µM [activator, single point] | –
COc1ccc(NC(=O)NC(C(F)(F)F)C(F)(F)F)cc1 | – | inactive: -23.6%
COc1ccccc1-c1ccc2c(c1)C(C)(Cc1ccc(F)c(Cl)c1)C(=O)N2 (stereo not drawn) | inconclusive: 35.5 µM [activator, single point] | –
CCOC(=O)[C@]12CCCC=C1N(Cc1ccc(Cl)cc1Cl)C(=O)[C@H](CC(=O)NCC13CC4CC(CC(C4)C1)C3)C2 | inconclusive: 35.5 µM [activator, single point] | –
CCN(CC)C(=S)SC1CCCCN(C(=O)c2ccccc2)C1=O (stereo not drawn) | inconclusive: 28.2 µM [activator, single point] | –
COc1ccc(N(C)S(=O)(=O)c2cccc(C(=O)N3CCN(S(=O)(=O)c4ccc(C)cc4)CC3)c2)cc1 | inconclusive: 31.6 µM [activator, single point] | –
COc1cc(-c2cc(OC)c3c(C)oc(C)c3c(=O)c2)ccc1OC(=O)c1cccc(C)c1 | – | inactive: 42.7%
CN(C(=O)CSc1nc(-c2ccccc2)cn1N)C(c1ccccc1)c1ccccc1 | active: 31.6 µM | –
CCOc1cccc(C2C(C(=O)c3ccc(C)o3)=C(O)C(=O)N2c2nccs2)c1 (stereo not drawn) | inconclusive: 39.8 µM [activator, single point] | –
O=C(Nc1nc2ncccn2c1-c1ccc(C(F)(F)F)cc1)c1ccccc1 | – | inactive: 13.4%
C=CC[C@H](CC(=O)OC(C)(C)C)C(=O)OC[C@@H]1CCCN1C(=O)[C@@H](CC=C)CC(=O)N[C@H](CO)Cc1ccccc1 | inconclusive: 28.2 µM [activator, partial curve] | –
Cc1ccc([N+](=O)[O-])cc1S(=O)(=O)NCCc1c(C)[nH]c2ccccc12 | inconclusive: 12.6 µM [activator, partial curve, poor fit] | –
CCn1c(SCC(=O)NC2CCCCC2)nnc1-c1cc2cccc(OC)c2o1 | inconclusive: 11.2 µM [activator, partial curve] | –
CCOC(=O)c1ccc(N2C(=O)c3n[nH]c(-c4ccco4)c3C2c2ccccc2OC)cc1 (stereo not drawn) | inconclusive: 28.2 µM [activator, single point] | –

Compound | Potency | growth rescue (activation)
COc1ccc(-c2cc(NC=O)c3ncc(-c4ccc(OC)c(OC)c4)n3c2)c(OC)c1 | inconclusive: 35.5 µM [activator, single point] | –
Cc1ccc(-c2nnc(N3CCN(S(C)(=O)=O)CC3)c3ccccc23)cc1 | – | inactive: 9.98%
COc1ccc(/C=C/C(=O)NCc2cnn(C)c2C)cc1COc1ccc(Br)cc1 | inconclusive: 28.2 µM [activator, partial curve, poor fit] | –
COc1ccc(CNS(=O)(=O)c2ccc(-c3cc(C(F)(F)F)on3)s2)cc1OC | inconclusive: 50.1 µM [activator, single point] | –
COC(=O)c1c(C)oc2ccc(N(C(=O)c3ccncc3)S(=O)(=O)c3ccc(Br)cc3)cc12 | inconclusive: 22.4 µM [activator, partial curve, poor fit] | –
COc1ccccc1NS(=O)(=O)c1ccc(N/N=C/c2ccccc2OCC(=O)O)c([N+](=O)[O-])c1 | inconclusive: 28.2 µM [activator, partial curve, poor fit] | –
Cc1c(CCC(=O)O)c(=O)oc2cc3oc4c(c3cc12)CCCC4 | – | inactive: 5.35%
COc1ccc(CNC(=O)C(NS(=O)(=O)c2ccc3c(c2)CCCN3C(C)=O)C(C)C)cc1 (stereo not drawn) | – | inconclusive: 53.3% [activator]
Cn1c(=O)cc(OCCCC(=O)N2CCN(c3ccccc3)CC2)c2ccccc21 | inconclusive: 31.6 µM [activator, partial curve, poor fit] | –
O=C1c2ccccc2NC(c2ccc(F)cc2)N1Cc1ccco1 (stereo not drawn) | – | inconclusive: 54.3% [activator]
CCOC(=O)c1c(-c2ccccc2)oc2ccc(OCc3ccccc3Br)cc12 | – | inactive: 0.25%
CCc1ccc(C(=O)Cn2ccsc2=N)cc1 | inconclusive: 10 µM [activator, partial curve, poor fit] | –
COCCN(C(=S)Nc1ccc(C)c(C)c1)C(C)c1ccco1 (stereo not drawn) | – | inactive: -10.3%
Cc1cccc(N2CCN(C(=O)CCS(=O)(=O)c3ccc4c(c3)CC(=O)N4C)CC2C)c1 (stereo not drawn) | inconclusive: 28.2 µM [activator, single point] | –
O=C(COc1ccccc1)Nc1nnc(-c2ccco2)o1 | – | inactive: 5.83%
Cc1cccc(CNC(=O)Cn2nc(C)c3nn(-c4ccc(Cl)cc4)c(C)c3c2=O)c1 | – | inactive: 21.7%
COc1cccc(CN(C(=O)Cc2c[nH]c3ccccc23)C(C(=O)NC2CCCCC2)c2ccc(C)o2)c1 (stereo not drawn) | – | inactive: 16.1%
Cc1ccc(Cl)c(Nc2ccccc2C(=O)O)c1Cl | inactive | –
CCc1nonc1NC(=O)COc1ccc(Cl)c(C)c1 | – | inactive: -14%
CCOC(=O)c1c(S(=O)(=O)N2CCCC(C(=O)Nc3cccc(CC)c3)C2)c(C)n(CC)c1C (stereo not drawn) | inconclusive: 14.1 µM [activator, single point] | –
CC(C)C[C@H]1CN([C@@H](CC(C)C)CN2CCCC2CN2C(=S)NC[C@@H]2Cc2ccc(O)cc2)C(=S)N1CC1CCCCC1 (stereo partly drawn) | inconclusive: 22.4 µM [activator, single point] | –

Compound | Potency | growth rescue (activation)
Cc1c(NC(=O)/C=C/c2cn(-c3ccccc3)nc2-c2ccccc2)c(=O)n(-c2ccccc2)n1C | inconclusive: 12.6 µM [activator, partial curve, poor fit] | –
Cc1c(NC(=O)Cc2ccc(Cl)cc2)cccc1-c1nc2cccnc2s1 | – | inactive: -16.7%
Cc1ccnc(NC(=S)N2CC3CN(c4cccc(C(F)(F)F)c4)CC3C2)c1 (stereo not drawn) | inconclusive: 28.2 µM [activator, single point] | –
COc1ccc([C@H]2CC(=O)C=C(c3ccccc3-c3ccccc3)C2)cc1 | – | inactive: 25.8%
N#C/C(=N\Nc1c(Cl)cccc1Cl)C(=O)NN | inconclusive: 56.2 µM [activator, partial curve, poor fit] | –
Cc1ccc(S(=O)(=O)N(C)C[C@H]2Oc3ncc(-c4ccccc4)cc3C(=O)N([C@@H](C)CO)C[C@@H]2C)cc1 | inconclusive: 28.2 µM [activator, single point] | –
Cc1ccccc1C1c2[nH]c3ccccc3c2C[C@H]2C(=O)N(c3ccccc3C(=O)NCCN3CCOCC3)C(=O)N12 (stereo partly drawn) | inconclusive: 39.8 µM [activator, single point] | –
N#Cc1c(-c2ccccc2)c(-c2ccccc2)n(Cc2ccco2)c1NC(=O)c1cccs1 | inconclusive: 5.01 µM [activator, partial curve, poor fit] | –
COc1ccc(/C=C2/SC(c3ccc(C)cc3)=NC2=O)cc1OC | inconclusive: 35.5 µM [activator, single point] | –
COc1ccc([N+](=O)[O-])cc1NC(=O)C(C)OC(=O)CSC(C)C(=O)Nc1cc(C)on1 (stereo not drawn) | – | inactive: 8.69%
Cc1cc(NS(=O)(=O)c2ccc(NC(=O)Cc3ccccc3)cc2)no1 | – | inactive: -13.9%
CCCCn1c(N)c(N(CC(C)C)C(=O)CN2C(=O)NC3(CC(C)CC(C)(C)C3)C2=O)c(=O)[nH]c1=O (stereo not drawn) | inconclusive: 25.1 µM [activator, single point] | –
Cc1cc(=O)oc2c(C)c(OCC(=O)N3CCN(c4cccc(Cl)c4)CC3)ccc12 | inconclusive: 15.8 µM [activator, single point] | –
Cc1ccc(CCNC(=O)C2CC(=O)N(CCc3ccc(C)cc3)C2)cc1 (stereo not drawn) | inconclusive: 50.1 µM [activator, single point] | –
COc1ccc(C)cc1NC(=O)CSc1nc(=O)n(Cc2ccco2)c2c1CCC2 | inconclusive: 31.6 µM [activator, single point] | –
CC(C)(C)c1ccccc1NC(=O)c1cc(-c2ccncc2)nc2ccccc12 | inconclusive: 28.2 µM [activator, single point] | –
O=C(Nc1ccc(C(F)(F)F)cc1)OC1CCC12CCCCC2 (stereo not drawn) | – | inactive: -7.9%
O=C1c2cccn2CC2Cc3ccccc3N12 (stereo not drawn) | – | inactive: -2.93%
NC(=O)CC(NC(=O)Cc1ccc(Cl)cc1)c1ccc(NC2CC3CCC2C3)c([N+](=O)[O-])c1 (stereo not drawn) | inconclusive: 50.1 µM [activator, single point] | –
Cc1ccc(NC(=O)c2cccc(C(=O)OC(C)C)n2)c(Br)c1 | inconclusive: 50.1 µM [activator, single point] | –
CCOP(=O)(OCC)C(NC(=O)Nc1ccc(Cl)c(Cl)c1)c1ccccc1 (stereo not drawn) | inconclusive: 10 µM [activator, partial curve, poor fit] | –
